Reference: PubChem BioAssay AID720709 (National Center for Advancing Translational Sciences (NCATS), 2013)
Screen size: about 360,000 compounds; about 520 (0.14%) were called active. The inconclusive results got no clear call from the source; some entries with a clear call stand among them for comparison. The call rests on the fitted dose curve; in most records, active means well fitted inhibition curve with a large enough effect; inconclusive means small, poorly fitted or top-dose-only effect; inactive means no such curve, though single readings can be large or run the other way. Potencies of inconclusive entries are doubtful fits and often do not repeat.

Each compound was assayed against Rap guanine nucleotide exchange factor 3 (Homo sapiens) (UniProt O95398) (assay: qHTS for Antagonist of cAMP-regulated guanine nucleotide exchange factor 3 (EPAC1): primary screen). Conditions: EPAC1 GEF assay, Rap1b-BODIPY-GDP exchange fluorescence; activity change, negative = inhibition: at 115 µM (top of the series).
Chain of UniProt O95398 (O95398 whole entry, looked up): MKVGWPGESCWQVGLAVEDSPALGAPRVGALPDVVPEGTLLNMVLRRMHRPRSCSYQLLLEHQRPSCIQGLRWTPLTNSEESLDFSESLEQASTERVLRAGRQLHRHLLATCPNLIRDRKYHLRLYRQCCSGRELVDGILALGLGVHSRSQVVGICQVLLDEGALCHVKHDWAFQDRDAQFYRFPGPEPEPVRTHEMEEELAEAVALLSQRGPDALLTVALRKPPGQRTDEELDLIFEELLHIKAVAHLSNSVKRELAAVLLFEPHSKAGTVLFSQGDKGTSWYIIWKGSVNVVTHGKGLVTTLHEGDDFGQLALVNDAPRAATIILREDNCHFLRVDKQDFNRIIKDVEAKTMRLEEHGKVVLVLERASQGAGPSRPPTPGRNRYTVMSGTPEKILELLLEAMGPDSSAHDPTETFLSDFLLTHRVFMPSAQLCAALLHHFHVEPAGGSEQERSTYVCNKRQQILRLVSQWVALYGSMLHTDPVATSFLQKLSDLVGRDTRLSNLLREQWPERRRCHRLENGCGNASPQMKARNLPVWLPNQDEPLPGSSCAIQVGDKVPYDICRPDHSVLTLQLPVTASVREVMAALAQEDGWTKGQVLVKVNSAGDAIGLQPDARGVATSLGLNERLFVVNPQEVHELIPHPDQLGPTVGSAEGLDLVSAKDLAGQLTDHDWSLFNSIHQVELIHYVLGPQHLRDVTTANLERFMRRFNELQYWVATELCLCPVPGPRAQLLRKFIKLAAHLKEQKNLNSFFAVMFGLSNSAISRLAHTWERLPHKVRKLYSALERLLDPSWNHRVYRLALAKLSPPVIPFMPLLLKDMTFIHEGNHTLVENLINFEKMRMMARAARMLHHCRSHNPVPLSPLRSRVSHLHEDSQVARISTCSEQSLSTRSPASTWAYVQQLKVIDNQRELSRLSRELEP
Further: nearly all actives have a fitted effect of over 50% in size.
Potency means the concentration at half of the fitted maximal effect; tags describe the fitted curve by direction and shape.
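Wherever activity change, negative = inhibition is given: plate controls were vehicle for no effect and positive control for full effect.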

Activity change, negative = inhibition, inactive:
CCN(CC)c1ccc(/C=N/NC(=O)c2nnn(-c3nonc3N)c2CN(C)C2CCCCC2)cc1 -7.95%
C[N+](C)(CC#N)C/C=C\c1ccccc1 2.78%
O=C(NC1CCCCCC1)c1ccc[nH]c1=S -5.35%
Cc1ccc2occ(/C=N/NC(=O)c3ccccc3Br)c(=O)c2c1 -9.02%
CC(C)C[C@@H]1COc2cc(N3CCC[C@@H]3CO)ccc2S(=O)(=O)N1 21.2%
COC(=O)C1=NN(c2cccc3ccccc23)C2C(=O)N(c3ccccc3OC)C(=O)C12 (stereo not drawn) -24.2%
CC(C)(C)NC(=S)NNC(=O)c1cccc(Br)c1 -8.46%
O=C(NCc1ccc2c(c1)OCO2)c1nc(S(=O)(=O)Cc2ccccc2F)ncc1Cl -17.8%
Cc1cccc(-c2ccc([N+](=O)[O-])cc2CN2CCN(c3ncc(Cc4ccccc4)cn3)CC2)c1 -1.14%
CC(=O)CSc1nc2ccccc2s1 -9.37%
O=[N+]([O-])c1cc(Cl)ccc1-c1nc(-c2ccncc2)no1 2.91%
CSc1ccccc1NC(=O)c1cc(-c2ccc3c(c2)OCO3)on1 8.39%
CC1CCN(C(=O)c2cc3c(ccc4ccccc43)o2)CC1 -4.73%
CN(C)c1ccc(N=Nc2nc3ccccc3n2C)cc1 -15%
Cn1cc(CN2CCC(N3CCNC(=O)CC3)CC2)c(-c2ccccc2F)n1 7%
O=C(O)CCC(=O)N1CCN(S(=O)(=O)c2ccc3ccccc3c2)CC1 8.53%
CC1(C)C2CCC1(C)C(OC(=O)C[n+]1ccccc1)C2 (stereo not drawn) 2.59%

Activity change, negative = inhibition, inconclusive:
O=C(Nc1nnc(-c2cccs2)o1)c1cc(-c2ccccc2)nc2ccccc12 -16.5% [inhibitor]
CCOCCCN(C(=O)c1snc(C(N)=O)c1N)C(C(=O)NCCC(C)C)c1ccc(F)cc1 (stereo not drawn) -32.9% [inhibitor]
COC(=O)C1Sc2[nH]c(=O)sc2C(c2ccc(Cl)cc2)C1C(=O)OC (stereo not drawn) -10.3% [inhibitor]
Cc1[nH]c2ccccc2c1C(=O)C(=O)N1CCN(c2ccccc2Cl)CC1 -15.3% [inhibitor]

Potency, active:
Cc1ccc(S(=O)(=O)N2[C@@H](c3ccc(Br)cc3)C(C(=O)O)=CC[C@H]2c2ccc(C(C)C)cc2)cc1 56.2 µM

Potency, inconclusive:
CCOC(=O)c1c(C)sc2c1N(C(=O)CCl)c1cc(Cl)ccc1S2 44.7 µM [inhibitor, partial curve]
O=C(NCCNCc1ccccc1)c1ccco1 100 µM [inhibitor, single point]
CCN(CC)c1ccc(NC(=O)c2ccccc2F)cc1S(=O)(=O)Nc1ccccc1OC 28.2 µM [inhibitor, partial curve]
Cn1c(=O)[nH]c(=O)c2[nH]c(N(Cc3ccccc3)Cc3ccccc3)nc21 39.8 µM [inhibitor, partial curve]
CC(=O)c1cccc(NC(=O)C(C)OC(=O)CCn2c(C)csc2=O)c1 (stereo not drawn) 3.16 µM [inhibitor, full curve, poor fit]
CCCCN(C)C(=O)c1cn(C)c2ccc(S(=O)(=O)N(C)C)cc2c1=O 44.7 µM [inhibitor, partial curve, poor fit]
CC(=O)C1=CCC(c2ccccc2)N(S(=O)(=O)c2ccccc2)C1 (stereo not drawn) 28.2 µM [inhibitor, full curve, poor fit]
Cn1c(CC(=O)Nc2ccccc2)cc2ccccc21 8.91 µM [inhibitor, partial curve]
CC(C)c1ccc(C2C(C#N)=C(N)Oc3c2oc(CO)cc3=O)cc1 (stereo not drawn) 100 µM [inhibitor, single point]
Cc1ccc(S(=O)(=O)N2CCOCC2)cc1C(=O)N1CC(C)CC(C)C1 (stereo not drawn) 56.2 µM [inhibitor, partial curve]
COc1cc2c(cc1OC)C(c1cccs1)N(C(=O)c1ccc(S(=O)(=O)N(C)C)cc1)CC2 (stereo not drawn) 79.4 µM [inhibitor, partial curve]
CN(C)CCCN(Cc1cc2cc3c(cc2[nH]c1=O)OCO3)C(=S)Nc1cccc(Cl)c1 39.8 µM [inhibitor, single point]
CCCC(=O)NCCCc1nc2ccccc2n1C 20 µM [inhibitor, single point]
COc1cc(NC(=O)c2ccccc2)c(OC)cc1NC(=O)Cc1cccs1 50.1 µM [inhibitor, partial curve]
COc1ccc2[nH]c(=O)c(CNc3cc(C)ccc3C)cc2c1 3.55 µM [inhibitor, full curve, poor fit]
Cc1c(CCC(=O)O)c(=O)oc2c(C)c3occ(-c4ccc(Br)cc4)c3cc12 15.8 µM [inhibitor, full curve]
O=C(Nc1ccc2c(c1)CCCN2C(=O)c1cccs1)c1c(F)cccc1F 100 µM [inhibitor, single point]
COc1ccc(OC)c(S(=O)(=O)N2CCc3ccccc3C2)c1 79.4 µM [inhibitor, single point]
O=S(=O)(c1ccc2c(c1)OCCO2)N1CCC(n2nnc3cc(C(F)(F)F)ccc32)CC1 28.2 µM [inhibitor, partial curve]
CCc1ccc(C(=O)NNC(=O)C2CCN(c3ncnc4sc(C)c(C)c34)CC2)cc1 44.7 µM [inhibitor, full curve]
COc1ccc(-c2csc(NC(=O)c3cc(C)oc3C)n2)cc1OC 44.7 µM [inhibitor, full curve, poor fit]
CCC(=O)Nc1c(C#N)c2nc3ccccc3nc2n1-c1ccc(C)cc1 3.55 µM [inhibitor, full curve]
CSc1cccc(Nc2ccc(S(=O)(=O)N3CCOCC3)cc2[N+](=O)[O-])c1 8.91 µM [inhibitor, partial curve, poor fit]
COc1cccc(NC(=O)COC(=O)CCCC2=NS(=O)(=O)c3ccccc3N2)c1 100 µM [inhibitor, single point]
COc1ccc(/C=C/C(=O)N2CCC(c3ccccc3)C2)cc1 (stereo not drawn) 100 µM [inhibitor, partial curve]
Cn1nc(C(=O)Nc2cccc(S(=O)(=O)N3CCCC3)c2)c2ccccc2c1=O 89.1 µM [inhibitor, single point]
C=C(C)COc1ccc(-c2nc(N)ncc2Oc2ccc(OC)cc2)c(O)c1 25.1 µM [inhibitor, full curve]
COc1ccc(OC)c2c1sc(=NC(=O)c1ccco1)n2C 25.1 µM [inhibitor, single point]
C=C1CCC[C@]2(C)C[C@H]3OC(=O)C(CNC(C)CC)[C@H]3CC12 (stereo partly drawn) 35.5 µM [inhibitor, full curve]
O=C(COC(=O)c1ccc2c(c1)OCO2)Nc1ccccc1Cl 100 µM [inhibitor, single point]
O=C(/C=C/c1ccc(F)cc1)c1cc(Br)ccc1O 39.8 µM [inhibitor, full curve, poor fit]
CCCC(=O)Nc1ccc(C(=O)Nc2nnc(COC)s2)cc1 79.4 µM [inhibitor, partial curve]
O=C(Nc1ccccc1)N1N=C(c2cccs2)CC1c1cccs1 (stereo not drawn) 35.5 µM [inhibitor, full curve]
Cc1ccc(/C=N/NC(=O)c2cccc(S(=O)(=O)N3CCOCC3)c2)o1 100 µM [inhibitor, partial curve]
Cc1ccc(NC(=O)C(C)N=C2NS(=O)(=O)c3ccccc32)cc1F (stereo not drawn) 100 µM [inhibitor, single point]
COc1ccc(Cl)cc1-n1c(=S)sc2c(=O)[nH]c(SCC(=O)NCC3CCCO3)nc21 (stereo not drawn) 89.1 µM [inhibitor, single point]
Cc1cc(Nc2ccc(Cl)cc2)n(-c2cccc(Cl)c2)n1 100 µM [inhibitor, partial curve, poor fit]
COc1ccc(-c2nn(-c3ccccc3C)cc2CNC(C)Cn2cncn2)cc1F (stereo not drawn) 12.6 µM [inhibitor, full curve, poor fit]
COCCn1nnnc1C(c1ccc(OC)c(OC)c1)N1CCN(c2nc3ccccc3s2)CC1 (stereo not drawn) 79.4 µM [inhibitor, single point]
C/C(=N\NC(=O)CSCc1ccccc1Cl)c1cc(O)ccc1O 56.2 µM [inhibitor, partial curve]
C/C(=N\Nc1nc(-c2cc(C)ccc2C)cs1)c1cc2c(ccc3ccccc32)oc1=O 89.1 µM [inhibitor, partial curve]
C/C(=N\NC(=O)c1cccc(S(=O)(=O)N2CCOCC2)c1)c1ccc(O)cc1 79.4 µM [inhibitor, single point]
Nc1ccc2nc(-c3ccccc3)c(-c3ccccc3)nc2c1 89.1 µM [inhibitor, single point]
CCCOc1ccc(Oc2cc(C)nc(SC)n2)nn1 100 µM [inhibitor, single point]
COc1ccccc1NC(=S)NCC1CCCO1 (stereo not drawn) 22.4 µM [inhibitor, single point]
Cc1ccccc1-n1ncc2c1CC(C)(C)CC2NC(=O)CCN1CCCCC1=O (stereo not drawn) 3.16 µM [inhibitor, full curve]
